Measured values from the supplement of paper PMC8728848.
The other results are listed elsewhere or left out.

Tests used:
Experiment in all cases: glycan array binding signal (z-score within array); higher = stronger binding
Details in all cases: glycan notation: IUPAC condensed, linker removed
[1] = molecular target: GlcNAc(b1-4)GlcNAc(b1-4)GlcNAc(b1-4)GlcNAc(b1-4)GlcNAc
Procedure, shortened: (§1)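 Arrays were curated from the Consortium for Functional Glycomics database, 3228 in total, and kept only where the protein sequence was available. Binding is expressed as a within-array Z-score. This score was averaged across arrays of the same protein sequence at different concentrations or buffers and across linkers, and negative values can be read as non-binding.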

[2] = molecular target: GlcNAc(b1-4)GlcNAc(b1-4)GlcNAc(b1-4)GlcNAc(b1-4)GlcNAc(b1-4)GlcNAc
Procedure, shortened: as §1

[3] = molecular target: GlcNAc(b1-4)[GlcNAc(b1-6)]GalNAc
Procedure, shortened: as §1

[4] = molecular target: GlcNAc(b1-6)Gal(b1-4)GlcNAc
Procedure, shortened: as §1

[5] = molecular target: GlcNAc(b1-6)GalNAc
Procedure, shortened: as §1

[6] = molecular target: GlcNAc6S(b1-3)Gal(b1-4)GlcNAc
Procedure, shortened: as §1

[7] = molecular target: Kdn(a2-3)Gal(b1-3)GalNAc
Procedure, shortened: as §1

[8] = molecular target: Kdn(a2-3)Gal(b1-3)GlcNAc
Procedure, shortened: as §1

[9] = molecular target: Kdn(a2-3)Gal(b1-4)Glc
Procedure, shortened: as §1

[10] = molecular target: Kdn(a2-3)Gal(b1-4)GlcNAc
Procedure, shortened: as §1

[11] = molecular target: Kdn(a2-3)Gal(b1-4)[Fuc(a1-3)]GlcNAc
Procedure, shortened: as §1

[12] = molecular target: Kdn(a2-6)Gal(b1-4)GlcNAc
Procedure, shortened: as §1

[13] = molecular target: Man(a1-2)Man(a1-2)Man(a1-3)Man
Procedure, shortened: as §1

[14] = molecular target: Man(a1-2)Man(a1-2)Man(a1-6)[Man(a1-3)]Man
Procedure, shortened: as §1

[15] = molecular target: Man(a1-2)Man(a1-3)Man
Procedure, shortened: as §1

[16] = molecular target: Man(a1-2)Man(a1-3)[Man(a1-2)Man(a1-6)]Man
Procedure, shortened: as §1

[17] = molecular target: Man(a1-2)Man(a1-3)[Man(a1-2)Man(a1-6)]Man(a1-6)[Man(a1-2)Man(a1-2)Man(a1-3)]Man
Procedure, shortened: as §1

[18] = molecular target: Man(a1-2)Man(a1-3)[Man(a1-2)Man(a1-6)]Man(a1-6)[Man(a1-2)Man(a1-2)Man(a1-3)]Man(b1-4)GlcNAc(b1-4)GlcNAc
Procedure, shortened: as §1

[19] = molecular target: Man(a1-2)Man(a1-3)[Man(a1-6)]Man(a1-6)[Man(a1-2)Man(a1-3)]Man(b1-4)GlcNAc(b1-4)GlcNAc
Procedure, shortened: as §1

[20] = molecular target: Man(a1-2)Man(a1-6)[Man(a1-3)]Man(a1-6)[Man(a1-2)Man(a1-2)Man(a1-3)]Man
Procedure, shortened: as §1

[21] = molecular target: Man(a1-2)Man(a1-6)[Man(a1-3)]Man(a1-6)[Man(a1-2)Man(a1-2)Man(a1-3)]Man(b1-4)GlcNAc(b1-4)GlcNAc
Procedure, shortened: as §1

[22] = molecular target: Man(a1-3)[Man(a1-6)]Man
Procedure, shortened: as §1

[23] = molecular target: Man(a1-3)[Man(a1-6)]Man(a1-6)[Man(a1-2)Man(a1-3)]Man(b1-4)GlcNAc(b1-4)GlcNAc
Procedure, shortened: as §1

[24] = molecular target: Man(a1-3)[Man(a1-6)]Man(a1-6)[Man(a1-3)]Man
Procedure, shortened: as §1

[25] = molecular target: Man(a1-3)[Man(a1-6)]Man(a1-6)[Man(a1-3)]Man(b1-4)GlcNAc(b1-4)GlcNAc
Procedure, shortened: as §1

[26] = molecular target: Man(a1-3)[Man(a1-6)]Man(b1-4)GlcNAc(b1-4)GlcNAc
Procedure, shortened: as §1

[27] = molecular target: Man(a1-3)[Man(a1-6)]Man(b1-4)GlcNAc(b1-4)[Fuc(a1-6)]GlcNAc
Procedure, shortened: as §1

[28] = molecular target: Man(a1-6)Man
Procedure, shortened: as §1

[29] = molecular target: Man(b1-4)GlcNAc
Procedure, shortened: as §1

[30] = molecular target: MurNAc(b1-4)GlcNAc
Procedure, shortened: as §1

[31] = molecular target: Neu5Ac(a2-3)Gal
Procedure, shortened: as §1

[32] = molecular target: Neu5Ac(a2-3)Gal(b1-3)GalNAc
Procedure, shortened: as §1

[33] = molecular target: Neu5Ac(a2-3)Gal(b1-3)GalNAc(b1-3)Gal(a1-4)Gal(b1-4)Glc
Procedure, shortened: as §1

[34] = molecular target: Neu5Ac(a2-3)Gal(b1-3)GalNAc(b1-4)Gal(b1-4)Glc
Procedure, shortened: as §1

[35] = molecular target: Neu5Ac(a2-3)Gal(b1-3)GalNAc(b1-4)[Neu5Ac(a2-3)]Gal(b1-4)Glc
Procedure, shortened: as §1

[36] = molecular target: Neu5Ac(a2-3)Gal(b1-3)GalNAc(b1-4)[Neu5Ac(a2-8)Neu5Ac(a2-3)]Gal(b1-4)Glc
Procedure, shortened: as §1

[37] = molecular target: Neu5Ac(a2-3)Gal(b1-3)GalNAc6S
Procedure, shortened: as §1

[38] = molecular target: Neu5Ac(a2-3)Gal(b1-3)GlcNAc
Procedure, shortened: as §1

[39] = molecular target: Neu5Ac(a2-3)Gal(b1-3)GlcNAc(b1-2)Man
Procedure, shortened: as §1

[40] = molecular target: Neu5Ac(a2-3)Gal(b1-3)GlcNAc(b1-2)Man(a1-3)[GlcNAc(b1-4)][Neu5Ac(a2-3)Gal(b1-3)GlcNAc(b1-2)Man(a1-6)]Man(b1-4)GlcNAc(b1-4)GlcNAc
Procedure, shortened: as §1

[41] = molecular target: Neu5Ac(a2-3)Gal(b1-3)GlcNAc(b1-2)Man(a1-3)[Neu5Ac(a2-3)Gal(b1-3)GlcNAc(b1-2)Man(a1-6)]Man(b1-4)GlcNAc(b1-4)GlcNAc
Procedure, shortened: as §1

[42] = molecular target: Neu5Ac(a2-3)Gal(b1-3)GlcNAc(b1-2)[Neu5Ac(a2-3)Gal(b1-3)GlcNAc(b1-4)]Man(a1-6)[Neu5Ac(a2-3)Gal(b1-3)GlcNAc(b1-2)Man(a1-3)]Man(b1-4)GlcNAc(b1-4)GlcNAc
Procedure, shortened: as §1

[43] = molecular target: Neu5Ac(a2-3)Gal(b1-3)GlcNAc(b1-3)Gal(b1-3)GlcNAc
Procedure, shortened: as §1

[44] = molecular target: Neu5Ac(a2-3)Gal(b1-3)GlcNAc(b1-3)Gal(b1-4)GlcNAc
Procedure, shortened: as §1

[45] = molecular target: Neu5Ac(a2-3)Gal(b1-3)GlcNAc(b1-3)GalNAc
Procedure, shortened: as §1

B1: MpAFP NterminalRI GFP (Marinomonas primoryensis) (protein)
chain: MSDNQFPFATLGNAIGFITKLDGSVTVQSIDGQERVLKLGDPIFFGETVLTGGSGSVTIAFVDGTDVVIGGDSIVEMTDEIYNTGDNEDLVADSSSEIDALQNAILAGDDPTLIQDAPAAGNTLADQQRVDVSIERNDNSAQAGFGVDTQSSLPTYGYDTDNGNGGQATEREYSAPSLSRTLNQSPLLEHHHHHH
glycan array binding signal (z-score) [1]: -0.347
glycan array binding signal (z-score) [2]: -0.337
glycan array binding signal (z-score) [3]: -0.43
glycan array binding signal (z-score) [4]: 0.165
glycan array binding signal (z-score) [5]: -0.604
glycan array binding signal (z-score) [6]: 0.005
glycan array binding signal (z-score) [7]: -0.444
glycan array binding signal (z-score) [8]: -0.557
glycan array binding signal (z-score) [9]: -0.25
glycan array binding signal (z-score) [10]: -0.389
glycan array binding signal (z-score) [11]: -0.182
glycan array binding signal (z-score) [12]: -0.455
glycan array binding signal (z-score) [13]: -0.451
glycan array binding signal (z-score) [14]: -0.386
glycan array binding signal (z-score) [15]: -0.312
glycan array binding signal (z-score) [16]: 2.93
glycan array binding signal (z-score) [17]: -0.398
glycan array binding signal (z-score) [18]: 0.014
glycan array binding signal (z-score) [19]: -0.185
glycan array binding signal (z-score) [20]: -0.447
glycan array binding signal (z-score) [21]: -0.484
glycan array binding signal (z-score) [22]: 0.278
glycan array binding signal (z-score) [23]: -0.318
glycan array binding signal (z-score) [24]: 0.916
glycan array binding signal (z-score) [25]: -0.182
glycan array binding signal (z-score) [26]: 0.545
glycan array binding signal (z-score) [27]: -0.195
glycan array binding signal (z-score) [28]: -0.025
glycan array binding signal (z-score) [29]: 0.871
glycan array binding signal (z-score) [30]: -0.207
glycan array binding signal (z-score) [31]: -0.398
glycan array binding signal (z-score) [32]: -0.125
glycan array binding signal (z-score) [33]: -0.494
glycan array binding signal (z-score) [34]: -0.428
glycan array binding signal (z-score) [35]: -0.314
glycan array binding signal (z-score) [36]: -0.446
glycan array binding signal (z-score) [37]: -0.078
glycan array binding signal (z-score) [38]: -0.477
glycan array binding signal (z-score) [39]: -0.458
glycan array binding signal (z-score) [40]: -0.144
glycan array binding signal (z-score) [41]: 2.29
glycan array binding signal (z-score) [42]: 0.13
glycan array binding signal (z-score) [43]: -0.568
glycan array binding signal (z-score) [44]: -0.057
glycan array binding signal (z-score) [45]: -0.388
